# Hit rate of the full screen: of about 230,000 compounds, about 3,600 (1.6%) were called active. The shares of active, inactive and inconclusive entries below differ from those in the screen. Calls come from the whole dose curve; as a rule, active = well fitted inhibition curve with a large enough effect (not every such curve was filed as active); inconclusive = small, poorly fitted or top-dose-only effect, or another doubt; inactive = no such curve, though single readings can be large or run the other way. A potency beside an inconclusive call is a rough fit, not a confirmed value.
# Molecular target: Lysine-specific demethylase 4E (Homo sapiens) (UniProt B2RXH2)
# UniProt B2RXH2, sequence (B2RXH2 whole entry, looked up, the tested form may be a part): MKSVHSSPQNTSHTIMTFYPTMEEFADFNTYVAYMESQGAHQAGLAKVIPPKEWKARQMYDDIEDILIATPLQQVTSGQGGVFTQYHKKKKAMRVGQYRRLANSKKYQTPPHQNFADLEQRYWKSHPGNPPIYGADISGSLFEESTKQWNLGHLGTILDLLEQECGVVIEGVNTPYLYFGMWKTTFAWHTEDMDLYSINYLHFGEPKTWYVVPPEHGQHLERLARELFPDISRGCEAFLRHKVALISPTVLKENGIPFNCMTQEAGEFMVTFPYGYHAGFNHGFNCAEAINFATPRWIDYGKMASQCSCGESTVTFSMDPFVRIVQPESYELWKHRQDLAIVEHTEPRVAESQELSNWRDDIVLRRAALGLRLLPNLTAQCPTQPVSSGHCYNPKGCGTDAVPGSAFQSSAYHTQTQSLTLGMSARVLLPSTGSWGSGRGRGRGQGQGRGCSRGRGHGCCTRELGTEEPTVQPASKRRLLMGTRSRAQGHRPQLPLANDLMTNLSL
# Assay: qHTS Assay for Inhibitors of Human Jumonji Domain Containing 2E (JMJD2E)
# Details: JMJD2E catalytic domain, FDH-coupled NADH fluorescence (FDH is formaldehyde dehydrogenase); series mostly up to 57.1 µM; activity change, negative = inhibition: at the top concentration
# Note: nearly all actives have a fitted effect of over 50% in size.
# Potency is the fitted concentration of half-maximal effect; tags give direction and shape of the fitted curve.
# 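Throughout, for activity change, negative = inhibition: 0% = wells with enzyme and -100% = buffer wells without enzyme.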
Structure (SMILES),"activity change, negative = inhibition",Potency
C=C1C[C@H](OC(=O)C(C)(O)CCl)C2C(=C)C(=O)O[C@@H]2C2C1C[C@H](O)[C@]2(O)CCl (some centres undefined),inactive: 15.4%,–
CS/C(N)=N/N=C/c1c(O)ccc2ccccc12,inactive: -24.6%,–
C/C(=N\O)C1CCCCC1,inactive: 5.55%,–
CC(=O)Nc1ccc(-c2nnc(SCC(=O)c3ccc4c(c3)Cc3ccccc3-4)n2C)cc1,–,"inconclusive: 28.2 µM [inhibitor, single point]"
CCOC(=O)c1sc2nc(C)c3c(c2c1N)CC(C)(C)OC3,–,"inconclusive: 31.6 µM [inhibitor, partial curve]"
Clc1cccc(Cl)c1/C=C/c1nc2ccccc2[nH]1,–,"inconclusive: 28.2 µM [inhibitor, partial curve]"
CCCN(CCC)C(=O)Cc1ccc(F)cc1,inactive: -0.929%,–
COc1ccc(CCNC(=O)c2sc(=S)n(C)c2N)cc1,–,"inconclusive: 39.8 µM [inhibitor, single point]"
CCOC(=O)C1CCCN(C(=O)c2cc3nc(-c4cccc(OC)c4)cc(C(F)(F)F)n3n2)C1 (centres undefined),–,"inconclusive: 39.8 µM [inhibitor, single point]"
CC(C)c1ccc(S(=O)(=O)c2n[nH]n3c2nc(=O)c2ccccc23)cc1,–,"inconclusive: 25.1 µM [inhibitor, partial curve]"
On1cnnc1-c1ccccc1,inactive: -6.29%,–
COCCCN=C1NN=C(c2cc(C)n(-c3ccccc3)c2C)CS1,inactive: -5.21%,–
COc1ccc(OCC(O)Cn2cnc(-c3ccc(Br)cc3)c2)cc1 (centres undefined),inactive: -0.374%,–
O=C(Nc1cccc2nsnc12)c1cccnc1,–,"inconclusive: 28.2 µM [inhibitor, single point]"
COC(=O)c1ccc(-c2sc3nc(N4CCOCC4)c4c(c3c2N)CCCC4)o1,–,"inconclusive: 11.2 µM [inhibitor, partial curve]"
Cc1ccccc1C1NC(=S)NC2=C1C(=O)CCC2 (centres undefined),inactive: -12.9%,–
O=C(COc1ccc2oc(-c3ccccc3)cc(=O)c2c1)NCc1ccco1,–,"inconclusive: 25.1 µM [inhibitor, partial curve]"
CSc1ccccc1NC(=O)c1cc(-c2cccs2)on1,–,"inconclusive: 31.6 µM [inhibitor, single point]"
N#Cc1nc(-c2ccc(OCc3ccccc3)cc2)oc1N1CCOCC1,–,"inconclusive: 3.55 µM [inhibitor, partial curve]"
CC(C)(C)c1cc(NCc2ccccn2)n2ncc(-c3ccc(Cl)cc3)c2n1,–,"inconclusive: 12.6 µM [inhibitor, partial curve]"
O=C(Cn1ncc2c1-c1ccccc1OC2)N1CCN(c2ccccn2)CC1,–,"inconclusive: 28.2 µM [inhibitor, single point]"
COc1ccc2c(c1)O[C@H](c1ccc3c(c1)OCO3)[C@@H](OC(=O)Nc1ccc(OC(F)F)cc1)C2=O,inactive: -0.618%,–

Structure (SMILES),"activity change, negative = inhibition",Potency
CN1CCN(c2ccccc2NC(=O)c2sc3ccccc3c2Cl)CC1,–,"inconclusive: 39.8 µM [inhibitor, single point]"
CCn1c2ccccc2c2cc(NC(=O)CSc3nnc(C4CC4)n3Cc3ccco3)ccc21,–,"inconclusive: 25.1 µM [inhibitor, single point]"
COc1ccc(CCNC(=O)COC(=O)/C=C/c2ccc(OCC#N)c(OC)c2)cc1,–,"inconclusive: 28.2 µM [inhibitor, partial curve]"
COc1cc(C2C(C#N)=C(N)N(c3sc4c(c3C#N)CCCC4)C3=C2C(=O)CC(C)(C)C3)cc(OC)c1OC (centres undefined),–,"inconclusive: 39.8 µM [inhibitor, single point]"
CCN(CC)S(=O)(=O)c1ccc(O)c(C(=O)OCC(=O)N2c3ccccc3CC2C)c1 (centres undefined),–,"inconclusive: 31.6 µM [inhibitor, partial curve]"
CCOC(=O)C1=C(C)N(c2ccccc2)C(=O)/C1=C\c1ccc(O)c(OC)c1,–,active: 4.47 µM
CCOC(=O)c1ccccc1NC(=O)/C=C/c1cc(OC)c(OC)c(OC)c1,–,"inconclusive: 22.4 µM [inhibitor, partial curve]"
COc1ccc(N=c2cc(-c3ccc(OC)cc3)oc3ccccc23)cc1,–,"inconclusive: 25.1 µM [inhibitor, partial curve]"
COc1ccc(C2c3c(ncn(CCCO)c3=N)Oc3ccc4ccccc4c32)cc1 (centres undefined),–,"inconclusive: 25.1 µM [inhibitor, partial curve]"
Cc1ccc(CN2C(=O)N/C(=C\c3ccc(-c4ccc(C(=O)O)cc4C)o3)C2=O)cc1,–,"inconclusive: 14.1 µM [inhibitor, partial curve]"
Cc1oc(-c2cccs2)nc1CN1CCN(CC(C)C)C(CCO)C1 (centres undefined),–,"inconclusive: 22.4 µM [inhibitor, partial curve]"
CCCC[n+]1c(C)sc2cc(OC)ccc21,inactive: -0.348%,–
COc1cc(OC)c(OC)cc1CN1CCN(c2ccc(F)cc2)CC1,–,"inconclusive: 22.4 µM [inhibitor, single point]"
Cc1ccc(CN(Cc2cc3cc(C)ccc3[nH]c2=O)C(=O)N2CCOCC2)cc1,–,"inconclusive: 35.5 µM [inhibitor, single point]"
CC1CCCCN1C(=O)CSc1nnc(-c2ccc(Cl)s2)o1 (centres undefined),–,"inconclusive: 39.8 µM [inhibitor, single point]"
COc1ccc(C2CC(c3ccc4ccccc4c3)=NN2C(=O)CSc2ncccn2)cc1 (centres undefined),–,"inconclusive: 31.6 µM [inhibitor, partial curve]"
Cc1c(-c2ccccc2)nc2ccccc2c1C(=O)OCC(=O)Nc1ncc(C(F)(F)F)cc1Cl,–,"inconclusive: 39.8 µM [inhibitor, single point]"
COC(=O)c1ccccc1NC(=O)COC(=O)c1ccccc1N=Nc1ccc(N(C)C)cc1,inactive: -3.34%,–
COc1cccc2sc(NN)nc12,–,"inconclusive: 25.1 µM [inhibitor, single point]"
COc1ccc(Cn2cnc3c4cc(F)ccc4n(C)c3c2=O)cc1,–,"inconclusive: 6.31 µM [inhibitor, single point]"
COC(=O)c1cc2ccsc2n1Cc1nc(-c2ccc(OC)cc2)oc1C,–,"inconclusive: 39.8 µM [inhibitor, single point]"
N#C/C(=C\c1c(Cl)cccc1Cl)c1nc2ccccc2o1,–,"inconclusive: 35.5 µM [inhibitor, single point]"

# Reference: PubChem BioAssay AID2147 (National Center for Advancing Translational Sciences (NCATS), 2009)
